# Assay results from the supplement of paper PMC4604168 (melanoma cell lines).
# Some of the results follow. Repeats are few or missing, and single values can be far off.
# Tests used:
# Experiment in all cases: cell count relative to DMSO control; melanoma cells; higher = more viable cells
# Settings in all cases: library dose: low library concentration; 72 h
# MZ2-MEL = tested on: MZ2-MEL
# MeWo = tested on: MeWo
# RPMI7951 = tested on: RPMI7951
# RVH-421 = tested on: RVH-421
# SkMel28 = tested on: SkMel28
# SkMel2 = tested on: SkMel2
# SkMel30 = tested on: SkMel30
# UACC62 = tested on: UACC62
# SkMel5 = tested on: SkMel5
# UACC257 = tested on: UACC257
# 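Also: cell number obtained by counting DAPI-stained nuclei in high-throughput microscope images with image analysis software, screen run in 1,536-well plates.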
Compound,cell count (MZ2-MEL),cell count (MeWo),cell count (RPMI7951),cell count (RVH-421),cell count (SkMel28),cell count (SkMel2),cell count (SkMel30),cell count (UACC62),cell count (SkMel5),cell count (UACC257)
"Cn1cc(C2=C(c3cn(C4CCN(Cc5ccccn5)CC4)c4ccccc34)C(=O)NC2=O)c2ccccc21 [Enzastaurin] + Cn1sc(=O)n(Cc2ccccc2)c1=O [TDZD-8] (first compound 0.8 µM, partner dose 0.4 µM)",103%,110%,99.2%,77.2%,114%,112%,118%,98.9%,,
"Cn1cc(C2=C(c3cn(C4CCN(Cc5ccccn5)CC4)c4ccccc34)C(=O)NC2=O)c2ccccc21 [Enzastaurin] + CC(C)C[C@H](NC(=O)[C@H](Cc1ccccc1)NC(=O)c1cnccn1)B(O)O [Bortezomib] (first compound 0.8 µM, partner dose 0.001 µM)",93.1%,108%,97%,98.7%,97.7%,102%,128%,112%,,
"N.N.[Cl][Pt][Cl] [cisplatin] + Cc1nc(Nc2ncc(C(=O)Nc3c(C)cccc3Cl)s2)cc(N2CCN(CCO)CC2)n1 [dasatanib] (first compound 1.6 µM, partner dose 0.004 µM)",80.6%,92.6%,87.7%,104%,81%,107%,78.1%,76.7%,,
"Cn1cc(C2=C(c3cn(C4CCN(Cc5ccccn5)CC4)c4ccccc34)C(=O)NC2=O)c2ccccc21 [Enzastaurin] + C#Cc1cccc(Nc2ncnc3cc(OCCOC)c(OCCOC)cc23)c1 [erlotinib] (first compound 0.8 µM, partner dose 0.8 µM)",106%,106%,90.9%,98.3%,88.8%,124%,97.5%,98.9%,,
"N.N.[Cl][Pt][Cl] [cisplatin] + Nc1nc(F)nc2c1ncn2[C@@H]1O[C@H](CO)[C@@H](O)[C@@H]1O [fludarabine] (first compound 1.6 µM, partner dose 0.2 µM)",106%,39.7%,103%,92.6%,82.7%,12.8%,17.5%,78.1%,,
"Cn1cc(C2=C(c3cn(C4CCN(Cc5ccccn5)CC4)c4ccccc34)C(=O)NC2=O)c2ccccc21 [Enzastaurin] + NC(=O)c1ccc(N(C(N)=O)c2c(F)cccc2F)nc1-c1ccc(F)cc1F [VX702] (first compound 0.8 µM, partner dose 0.4 µM)",91%,111%,92.8%,71.2%,75.4%,102%,84%,93.8%,,
"Cn1cc(C2=C(c3cn(C4CCN(Cc5ccccn5)CC4)c4ccccc34)C(=O)NC2=O)c2ccccc21 [Enzastaurin] + Cc1cc(Nc2cc(N3CCN(C)CC3)nc(/C=C/c3ccccc3)n2)n[nH]1 [ENMD2076] (first compound 0.8 µM, partner dose 0.04 µM)",105%,103%,82.6%,96.2%,93.4%,98.1%,115%,111%,,
"Cn1cc(C2=C(c3cn(C4CCN(Cc5ccccn5)CC4)c4ccccc34)C(=O)NC2=O)c2ccccc21 [Enzastaurin] + COc1ccc(Cl)c(Nc2nc3ccccc3nc2NS(=O)(=O)c2cccc(NC(=O)C(C)(C)N)c2)c1 [XL147] (first compound 0.8 µM, partner dose 0.8 µM)",103%,102%,84.3%,92.2%,110%,104%,100%,94.6%,,
"N.N.[Cl][Pt][Cl] [cisplatin] + Nc1ccn([C@@H]2O[C@H](CO)[C@@H](O)C2(F)F)c(=O)n1 [gemcitabine] (first compound 1.6 µM, partner dose 0.0004 µM)",105%,102%,101%,109%,88.1%,111%,103%,118%,,
"Cn1cc(C2=C(c3cn(C4CCN(Cc5ccccn5)CC4)c4ccccc34)C(=O)NC2=O)c2ccccc21 [Enzastaurin] + Cn1c(Nc2ccc(C(F)(F)F)cc2)nc2cc(Oc3ccnc(-c4ncc(C(F)(F)F)[nH]4)c3)ccc21 [CHIR265] (first compound 0.8 µM, partner dose 0.08 µM)",86.8%,78.2%,47.9%,69.7%,76.6%,85.2%,69.8%,55.4%,,
"Cn1cc(C2=C(c3cn(C4CCN(Cc5ccccn5)CC4)c4ccccc34)C(=O)NC2=O)c2ccccc21 [Enzastaurin] + O=C(O)c1ccc2c(c1)nc(Nc1cccc(Cl)c1)c1ccncc12 [CX4945] (first compound 0.8 µM, partner dose 0.4 µM)",94.7%,125%,135%,81.7%,111%,107%,107%,96.4%,,
"Cn1cc(C2=C(c3cn(C4CCN(Cc5ccccn5)CC4)c4ccccc34)C(=O)NC2=O)c2ccccc21 [Enzastaurin] + COCC[n+]1c2c(n(Cc3cnccn3)c1C)C(=O)c1ccccc1C2=O [YM155] (first compound 0.8 µM, partner dose 0.0004 µM)",37.7%,119%,81%,71.7%,86.7%,87.6%,84.8%,88%,,
"N.N.[Cl][Pt][Cl] [cisplatin] + CCCS(=O)(=O)Nc1ccc(F)c(C(=O)c2c[nH]c3ncc(Cl)cc23)c1F [PLX4720] (first compound 1.6 µM, partner dose 0.08 µM)",87.6%,101%,80.2%,96.5%,117%,89%,111%,88%,,
"C[As](C)SC[C@H](NC(=O)CC[C@H](N)C(=O)O)C(=O)NCC(=O)O [Darinaparsin] + O=S(=O)(c1ccccc1)N(CC(F)(F)F)c1ccc(C(O)(C(F)(F)F)C(F)(F)F)cc1 [T0901317] (first compound 0.4 µM, partner dose 1.4 µM)",104%,94.9%,119%,93.9%,82.4%,,98.4%,90.2%,86.5%,109%
"C[C@]12O[C@H](C[C@]1(O)CO)n1c3ccccc3c3c4c(c5c6ccccc6n2c5c31)CNC4=O [Lestaurtinib] + NC(=O)Nc1cc(-c2cccc(F)c2)sc1C(=O)N[C@H]1CCCNC1 [AZD7762] (first compound 0.004 µM, partner dose 0.02 µM)",103%,86%,96%,112%,99.1%,,87.4%,114%,111%,112%
"C[C@]12O[C@H](C[C@]1(O)CO)n1c3ccccc3c3c4c(c5c6ccccc6n2c5c31)CNC4=O [Lestaurtinib] + Oc1cc(-c2nc(-c3ccccc3)[nH]c2-c2ccncc2)ccc1Cl [L779450] (first compound 0.004 µM, partner dose 0.2 µM)",89.9%,91.9%,121%,94.6%,85.9%,,70.2%,50.3%,116%,77%
"C[C@]12O[C@H](C[C@]1(O)CO)n1c3ccccc3c3c4c(c5c6ccccc6n2c5c31)CNC4=O [Lestaurtinib] + NCC(=O)Nc1ccc(-n2nc(C(F)(F)F)cc2-c2ccc3c(ccc4ccccc43)c2)cc1 [OSU03012] (first compound 0.004 µM, partner dose 1 µM)",101%,43.3%,122%,123%,84.9%,,59.8%,95.9%,89.8%,94.1%
"C[C@]12O[C@H](C[C@]1(O)CO)n1c3ccccc3c3c4c(c5c6ccccc6n2c5c31)CNC4=O [Lestaurtinib] + CO[C@@H]1[C@H](N(C)C(=O)c2ccccc2)C[C@H]2O[C@]1(C)n1c3ccccc3c3c4c(c5c6ccccc6n2c5c31)C(=O)NC4 [Midostaurin] (first compound 0.004 µM, partner dose 0.08 µM)",95.2%,81.2%,81%,86.8%,85.4%,,95%,86.7%,83.8%,57.2%
"C[C@]12O[C@H](C[C@]1(O)CO)n1c3ccccc3c3c4c(c5c6ccccc6n2c5c31)CNC4=O [Lestaurtinib] + COc1cc2ncnc(Nc3ccc(Oc4ccccc4)cc3)c2cc1OC [SrcI1] (first compound 0.004 µM, partner dose 2 µM)",88.3%,84%,129%,74.1%,90.9%,,86.8%,79.5%,104%,78.4%
"C[As](C)SC[C@H](NC(=O)CC[C@H](N)C(=O)O)C(=O)NCC(=O)O [Darinaparsin] + COc1ccc2c(c1)CCC1C2CCC2(C)C(NCCCCCCN3C(=O)C=CC3=O)CCC12 [U73122] (first compound 0.4 µM, partner dose 0.4 µM)",104%,102%,114%,29.7%,92%,,86.4%,84.8%,91%,92%
"C[C@]12O[C@H](C[C@]1(O)CO)n1c3ccccc3c3c4c(c5c6ccccc6n2c5c31)CNC4=O [Lestaurtinib] + C[C@@H]1CCN(C(=O)CC#N)C[C@@H]1N(C)c1ncnc2[nH]ccc12 [CP690550] (first compound 0.004 µM, partner dose 1 µM)",102%,92.7%,133%,103%,106%,,80.2%,106%,96.7%,94%
"C[C@]12O[C@H](C[C@]1(O)CO)n1c3ccccc3c3c4c(c5c6ccccc6n2c5c31)CNC4=O [Lestaurtinib] + O=S(=O)(c1ccccc1)N(CC(F)(F)F)c1ccc(C(O)(C(F)(F)F)C(F)(F)F)cc1 [T0901317] (first compound 0.004 µM, partner dose 1.4 µM)",103%,93.1%,106%,93.5%,92.5%,,89.1%,92.4%,95.8%,91.9%
